Experimental data: the supplement of paper PMC10126150
Values marked as one replicate rest on one cluster of the flow cell; about a third of the high ones do not repeat.
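Further: ATP exposure 15 min at 22 °C before imaging.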

These sequences were tested on ATP (assay: switch fluorescence ratio, 500 uM ATP over buffer (Cy3 cluster intensity, sum of 5 cycles each) (fold (ratio)); higher = stronger signal-on switching upon ATP binding; sequences stand for … in TCGTCGGCAGCGTCAGATGTGTATAAGAGACAGTTTTTTTTTTTTTTTTTTTTTTTTT…TC). Conditions: aptamer strand: ATP DNA aptamer (quencher-CACCTGGGGGAGTATTGCGGAGGAAGG + anchor), 100 nM annealed; ATP concentration: 500 uM; one replicate.
In short: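 Switching-strand clusters labelled with Cy3 on a modified Illumina MiSeq flow-cell were annealed to 100 nM quencher-labelled ATP aptamer, imaged in selection buffer, and re-imaged after 15 min with 500 uM ATP at 22 °C. This was done over five cycles with NaOH stripping and re-annealing in between. The fluorescence ratio is summed target-cycle over summed buffer-cycle Cy3 intensity per cluster, averaged per switch-domain sequence, excluding clusters outside 100-1000 RFU.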
For GATTTCTGAA, the switch fluorescence ratio was 1. For GATTTGAGCC, the switch fluorescence ratio was 0.976. Work on GATTTGTTAC yielded a switch fluorescence ratio of 0.993. GATTTTCCAG gave a switch fluorescence ratio of 0.993. In the case of GATTTTGGTA, the switch fluorescence ratio is reported as 0.967. GCAAAACGAC was tested, and the switch fluorescence ratio was 2.8. For GCAAATATCT, the switch fluorescence ratio was 1.05. GCAAATGATA was tested, and the switch fluorescence ratio was 0.946. In the case of GCAAATTGGT, the switch fluorescence ratio is reported as 1.01. With GCAACATGAC the switch fluorescence ratio was 1.45. With GCAACCGAAT the switch fluorescence ratio was 1.05. For GCAACCGGTG, the switch fluorescence ratio was 1.12. GCAACCTCAC gave a switch fluorescence ratio of 1.74. Sequence GCAACCTGTA has a switch fluorescence ratio of 1.01. GCAACGGGTG showed a switch fluorescence ratio of 1.78. In the case of GCAACTAGTG, the switch fluorescence ratio is reported as 1.04. Work on GCAACTATTT yielded a switch fluorescence ratio of 1. In the case of GCAAGACTGA, the switch fluorescence ratio is reported as 1.6. In the case of GCAAGAGCGA, the switch fluorescence ratio is reported as 1.02. Work on GCAAGGAAAT yielded a switch fluorescence ratio of 1. GCAAGGAATT gave a switch fluorescence ratio of 0.977. Sequence GCAAGGAGAG has a switch fluorescence ratio of 1.03. GCAAGGGGCA was tested, and the switch fluorescence ratio was 0.988. GCAAGGGTGA showed a switch fluorescence ratio of 1.05. With GCAAGGTAAC the switch fluorescence ratio was 1.1. GCAAGTCACA showed a switch fluorescence ratio of 1.11. Work on GCAAGTGTG yielded a switch fluorescence ratio of 1.33. Sequence GCAAGTTTTA has a switch fluorescence ratio of 0.992. Sequence GCAATAGATT has a switch fluorescence ratio of 1.01. In the case of GCAATAGCCT, the switch fluorescence ratio is reported as 1.32. GCAATATAGT showed a switch fluorescence ratio of 1.13. With GCAATATATA the switch fluorescence ratio was 1.14. For GCAATATCGG, the switch fluorescence ratio was 1.57. Work on GCAATCGGTT yielded a switch fluorescence ratio of 1.11. With GCAATTAGGG the switch fluorescence ratio was 1.06. For GCAATTGGGC, the switch fluorescence ratio was 1.15. GCACAAAACA gave a switch fluorescence ratio of 1.08. In the case of GCACAAAGC, the switch fluorescence ratio is reported as 1.09. Sequence GCACAAGAAG has a switch fluorescence ratio of 1.05. With GCACACATGA the switch fluorescence ratio was 1.01. For GCACACATTG, the switch fluorescence ratio was 1.07. GCACACTGCA gave a switch fluorescence ratio of 0.997. GCACAGGCGT was tested, and the switch fluorescence ratio was 1.16. With GCACATCAAG the switch fluorescence ratio was 1.03. GCACATGTTC showed a switch fluorescence ratio of 0.979. Sequence GCACCAGATT has a switch fluorescence ratio of 0.993. Sequence GCACCCATCC has a switch fluorescence ratio of 1.18. In the case of GCACCCCTTT, the switch fluorescence ratio is reported as 1.04. GCACCGAGTA gave a switch fluorescence ratio of 0.977. GCACCGCAGT was tested, and the switch fluorescence ratio was 1.67. GCACCGGTTG showed a switch fluorescence ratio of 1.01. GCACCTCGAT showed a switch fluorescence ratio of 1. In the case of GCACCTTACT, the switch fluorescence ratio is reported as 1.73. With GCACGCAAGA the switch fluorescence ratio was 1.65. GCACGCACGT gave a switch fluorescence ratio of 1.51. For GCACGCAGCG, the switch fluorescence ratio was 0.934. Sequence GCACGGGCGA has a switch fluorescence ratio of 0.998. In the case of GCACGGGGAG, the switch fluorescence ratio is reported as 0.984. Work on GCACTGGAGA yielded a switch fluorescence ratio of 1.03. GCACTGGGCA was tested, and the switch fluorescence ratio was 0.952. GCAGACAAAT gave a switch fluorescence ratio of 1.01. For GCAGACATTG, the switch fluorescence ratio was 1.01. GCAGACGTCT was tested, and the switch fluorescence ratio was 1.19. GCAGAGATCG was tested, and the switch fluorescence ratio was 0.944. Sequence GCAGCATGGC has a switch fluorescence ratio of 1.38. Work on GCAGCCAGTG yielded a switch fluorescence ratio of 1.11. In the case of GCAGCCCGTG, the switch fluorescence ratio is reported as 0.999. Sequence GCAGCCTGCC has a switch fluorescence ratio of 1.14. GCAGCGAATT showed a switch fluorescence ratio of 1.12. For GCAGCGGGAA, the switch fluorescence ratio was 1.12. With GCAGCTCAGT the switch fluorescence ratio was 0.942. GCAGGACCCC showed a switch fluorescence ratio of 1.22. Sequence GCAGGATCTC has a switch fluorescence ratio of 1.06. In the case of GCAGGCCGTC, the switch fluorescence ratio is reported as 1. GCAGGCGTAT showed a switch fluorescence ratio of 1.02. GCAGGGTTGG gave a switch fluorescence ratio of 1.01. For GCAGGTCTTT, the switch fluorescence ratio was 0.977. Work on GCAGTACAGT yielded a switch fluorescence ratio of 1.1. GCAGTAGATC showed a switch fluorescence ratio of 1.03. Work on GCAGTCCGCT yielded a switch fluorescence ratio of 1.17. In the case of GCAGTGAAGG, the switch fluorescence ratio is reported as 1.05. For GCAGTGAGCC, the switch fluorescence ratio was 1.03. Work on GCAGTGGGCT yielded a switch fluorescence ratio of 1.02. With GCAGTGGTGT the switch fluorescence ratio was 1.01. For GCAGTGTTGT, the switch fluorescence ratio was 0.973.
